# PubChem BioAssay AID504339 (National Center for Advancing Translational Sciences (NCATS), 2011)
# Where “and” joins values, the source holds several entries; their conditions need not be identical. Equal values may be shown once. Out of some 390,000 compounds screened, about 17,000 (4.4%) were called active. Inconclusive results, whose numbers are uncertain, are shown with a selection of clear calls. The call rests on the fitted dose curve; in most records, active means well fitted inhibition curve with a large enough effect; inconclusive means small, poorly fitted or top-dose-only effect; inactive means no such curve, though single readings can be large or run the other way. Where the call is inconclusive, the potency comes from a doubtful curve fit.
# Biological target: Lysine-specific demethylase 4A (Homo sapiens) (UniProt O75164)
# Assay: qHTS Assay for Inhibitors of JMJD2A-Tudor Domain; further: nearly all actives have a fitted effect of over 50% in size
# Details: AlphaScreen JMJD2A-Tudor / H3K4me3 peptide binding; activity change, negative = inhibition: at 114 µM (top of the series)
# On the % scale 0 is the no-effect control and ±100 the full control effect; potency means the concentration at half of the fitted maximal effect; tags describe the fitted curve by direction and shape.
# Sequence of UniProt O75164 (O75164 whole entry, looked up, the tested form may be a part): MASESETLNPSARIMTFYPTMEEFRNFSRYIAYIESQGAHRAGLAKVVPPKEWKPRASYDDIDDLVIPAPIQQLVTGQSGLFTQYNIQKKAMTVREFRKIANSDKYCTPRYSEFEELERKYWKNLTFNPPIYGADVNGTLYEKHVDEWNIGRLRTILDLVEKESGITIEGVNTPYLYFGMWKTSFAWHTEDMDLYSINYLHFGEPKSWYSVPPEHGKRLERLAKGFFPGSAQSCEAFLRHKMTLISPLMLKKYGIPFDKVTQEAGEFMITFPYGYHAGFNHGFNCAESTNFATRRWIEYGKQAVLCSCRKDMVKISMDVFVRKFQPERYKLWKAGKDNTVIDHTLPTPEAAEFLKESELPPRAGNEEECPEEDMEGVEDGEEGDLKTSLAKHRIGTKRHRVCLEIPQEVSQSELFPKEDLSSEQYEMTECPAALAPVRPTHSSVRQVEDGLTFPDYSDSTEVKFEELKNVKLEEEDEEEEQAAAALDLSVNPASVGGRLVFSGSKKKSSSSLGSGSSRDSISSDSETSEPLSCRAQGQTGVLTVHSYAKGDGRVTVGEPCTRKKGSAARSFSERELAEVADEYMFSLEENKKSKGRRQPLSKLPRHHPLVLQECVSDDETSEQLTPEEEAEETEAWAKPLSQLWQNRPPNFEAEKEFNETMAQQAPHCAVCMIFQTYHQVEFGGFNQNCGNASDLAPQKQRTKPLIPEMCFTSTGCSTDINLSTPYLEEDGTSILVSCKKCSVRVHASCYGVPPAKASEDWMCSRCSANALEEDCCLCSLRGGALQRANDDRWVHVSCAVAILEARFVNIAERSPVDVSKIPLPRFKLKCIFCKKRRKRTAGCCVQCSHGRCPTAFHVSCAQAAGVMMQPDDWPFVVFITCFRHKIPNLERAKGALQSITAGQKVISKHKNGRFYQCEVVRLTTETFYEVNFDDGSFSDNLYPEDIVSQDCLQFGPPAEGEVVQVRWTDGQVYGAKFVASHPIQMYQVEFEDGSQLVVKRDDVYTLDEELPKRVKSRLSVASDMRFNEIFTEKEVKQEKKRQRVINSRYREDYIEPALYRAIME
Compound,"activity change, negative = inhibition",Potency
Cc1ccc(-n2c(C)cc(=O)cc2C)cc1[N+](=O)[O-],inactive: -1.4%,–
COc1ccc2c(c1)CCc1cn[nH]c1-2,–,"inconclusive: 10 µM [inhibitor, full curve, poor fit]"
O=C1Nc2ccc(F)cc2C12Nc1ccccc1-c1nnc(SCc3ccccc3F)nc1O2 (stereo not drawn),–,"inconclusive: 56.2 µM [inhibitor, partial curve, poor fit]"
CC1CCCC(N2CCN(C(=O)c3ccc([N+](=O)[O-])cc3)CC2)C1 (stereo not drawn),–,active: 22.4 µM
COc1ccc(NC(=O)CN(C)S(=O)(=O)c2ccc3[nH]c4c(c3c2)CCCC4)cc1Cl,–,"inconclusive: 22.4 µM [inhibitor, full curve]"
O=C(CN1CCN(c2ccc(O)cc2)CC1)N1CCc2ccccc21,–,active: 79.4 µM
O=C(CCN1CCc2ccccc2C(c2ccccc2)C1)c1ccc2c(c1)OCCO2 (stereo not drawn),–,"inconclusive: 3.16 µM [inhibitor, single point]"
CC(C)N(C(=O)[C@H]1C[C@H](CC(=O)NCc2cccc(C(F)(F)F)c2)C(=O)N2CCc3c([nH]c4cc(-c5ccco5)ccc34)[C@]12C)C(C)C,–,"inconclusive: 15.8 µM [inhibitor, full curve]"
CCc1ccc(/C=C2/Sc3ccccc3N(CC(=O)NCCCN3CCOCC3)C2=O)cc1,–,"inconclusive: 35.5 µM [inhibitor, partial curve]"
CN1C(=O)/C(=C2\SC(N)=NC2=O)c2ccccc21,–,"inconclusive: 25.1 µM [inhibitor, full curve]"
N#C/C(=C(/O)CSc1ccccc1C(=O)O)c1nc2ccccc2s1,–,"inconclusive: 79.4 µM [inhibitor, partial curve]"
O=S1(=O)N=C(Oc2ccc3ccccc3c2)c2ccccc21,–,"inconclusive: 89.1 µM [inhibitor, partial curve]"
CCC1CCC2(CC1)NNC(=S)NN2,–,active: 50.1 µM
CCOC(=O)CSC1=NC(=O)/C(=C/c2ccc(Br)cc2)S1,–,"inconclusive: 79.4 µM [inhibitor, partial curve]"
COc1ccc(-n2c(C)cc(-c3csc(N)n3)c2C)cc1,–,active: 44.7 µM
CCCCC(c1nnnn1CCOC)N1CCN(Cc2ccccc2)CC1 (stereo not drawn),inactive: -31%,–
O=C1NC(Cc2c[nH]c3ccccc23)C(=O)N1Cc1ccc(CN2C(=O)NC(Cc3c[nH]c4ccccc34)C2=O)cc1 (stereo not drawn),–,"inconclusive: 35.5 µM [inhibitor, partial curve]"
Oc1c(Br)cc(Br)cc1/C=N/N1CCN(Cc2ccccc2)CC1,inactive: -26.6%,–
CCOc1ccc(NC(C)c2cc(Cl)ccc2O)cc1 (stereo not drawn),–,"inconclusive: 56.2 µM [inhibitor, partial curve]"
N#CCCN1CCCc2cc(N=Nc3ccc(C(F)(F)F)cc3)ccc21,–,active: 12.6 µM
CC(C)C[C@@H](CN)NC(=O)c1nc[nH]c1C(=O)N[C@@H](C)C(=O)CNC[C@H](CC(C)C)NC(=O)c1nc[nH]c1C(=O)N[C@@H](CC(=O)O)C(=O)O,–,active: 79.4 µM
COc1ccc(-n2c(CNC(=O)COc3ccccc3)n[nH]c2=S)cc1,–,active: 11.2 µM

Compound,"activity change, negative = inhibition",Potency
COc1ccc(NC(=O)Nc2nnc(N(C)C3CCCCC3)s2)c(OC)c1,inactive: -5.3%,–
O=C(Nc1ccc(C2SCCS2)cc1)c1ccccc1,inactive: -2.7%,–
COc1ccc(-c2cc(C(=O)Nc3ccccc3)on2)cc1,inactive: -8.71%,–
CN1CCN(C(=O)C2=C[C@H](C3CC3)C[C@H](OCc3ccc(CO)cc3)O2)CC1,–,"inconclusive: 31.6 µM [inhibitor, full curve, poor fit]"
COc1ccc(S(=O)(=O)Nc2cc(-c3cn4ccccc4n3)ccc2C)cc1,–,"inconclusive: 25.1 µM [inhibitor, single point]"
CN(C)c1ccc(NC(=O)CN2CCC(C(=O)c3ccc(F)cc3)CC2)cc1,–,"inconclusive: 56.2 µM [inhibitor, partial curve]"
Cc1cccc(Oc2c([N+](=O)[O-])c(=O)n(C)c3ccccc23)c1,–,"inconclusive: 89.1 µM [inhibitor, partial curve]"
COc1ccc(NC(=O)CSc2nnc(Cc3cccn3C)n2CCc2ccccc2)c(OC)c1,–,"inconclusive: 50.1 µM [inhibitor, partial curve]"
CCOc1cccc(C(=O)NC(=S)Nc2ccc(N3CCN(CC)CC3)cc2)c1,–,active: 56.2 µM
C/C(=N\NC(=S)NC1CCCCC1)c1ccc(O)cc1,–,"inconclusive: 56.2 µM [inhibitor, partial curve]"
O=C(CSc1nccn(-c2ccc3c(c2)OCCO3)c1=O)Nc1ccccc1,inactive: -24.1%,–
CCN(CC)CCNC(=O)c1ccc2c(c1NCCO)C(=O)c1ccccc1C2=O,–,"inconclusive: 50.1 µM [inhibitor, partial curve]"
CCN(CC)S(=O)(=O)c1ccc(N2CCCC2)c(NC(=O)C2=NN(c3ccccc3)C(=O)CC2)c1,–,"inconclusive: 50.1 µM [inhibitor, partial curve]"
O=c1[nH]c(-c2ccccn2)nc2sc(-c3ccccc3)cc12,–,"inconclusive: 89.1 µM [inhibitor, single point]"
Cc1ccc(CN(C(=O)COc2ccc(C)c(C)c2)C2CCS(=O)(=O)C2)o1 (stereo not drawn),–,"inconclusive: 63.1 µM [inhibitor, partial curve, poor fit] and inconclusive: 22.4 µM [inhibitor, full curve]"
CC(=O)Nc1sc(N/N=C\c2ccco2)nc1-c1cccs1,–,"inconclusive: 8.91 µM [inhibitor, full curve]"
Cc1cccc(NC(=O)CSc2nc3c([nH]c4ccccc43)c(=O)n2C)c1,–,"inconclusive: 15.8 µM [inhibitor, full curve]"
Oc1oc(-c2ccccc2)nc1C=NCc1ccccc1,–,"inconclusive: 50.1 µM [inhibitor, partial curve]"
COc1ccc(-c2cc(C(=O)Nc3c(C)nn(Cc4ccc(F)cc4)c3C)no2)cc1OC,inactive: -4.44%,–
CC1=CC(C)(C)N(C(=O)CSc2nnc(N)s2)c2cc(C)c(C)cc21,inactive: -18.7%,–
C=CCOCCN1C(=O)C2C3C=CC(C2C1=O)C1C2C(=O)N(CCOCC=C)C(=O)C2C31 (stereo not drawn),inconclusive: -47.1% [inhibitor],–
